Hit rate of the full screen: of about 410,000 compounds, about 530 (0.13%) were called active. The shares of active, inactive and inconclusive entries below differ from those in the screen. The call rests on the fitted dose curve; in most records, active means well fitted inhibition curve with a large enough effect; inconclusive means small, poorly fitted or top-dose-only effect, or another doubt; inactive means no such curve, though single readings can be large or run the other way. A potency beside an inconclusive call is a rough fit, not a confirmed value.
Assay: qHTS of GLP-1 Receptor Inverse Agonists: Cytotox Screen
Settings: HEK293 cAMP-luciferase reporter cells, luminescence, 24 h; activity change, negative = inhibition: at 38.3 µM (top of the series) unless noted
Method in brief: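 Step one: seed cells (200 cells/uL, DMEM with 10% Nu serum, 1% pen-strep). Step two: 12-hour incubation at 37 deg C. Step three: pin 23 nL compound, incubate 24 hr. Step four: add luciferase reagent, read luminescence 12 min later.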
In the case of `CCOC(=O)c1ccc(N2C(=O)CC(N3CCC(C(N)=O)(N4CCCCC4)CC3)C2=O)cc1` (stereo not drawn), the Potency was inconclusive: 28.2 µM [inhibitor, single point].
In the case of `Cc1c(Cl)cccc1NC(=S)NNc1ncc(C(F)(F)F)cc1Cl`, the Potency was inconclusive: 12.6 µM [inhibitor, single point].
With `COc1cc(OC)c(N(C)C(=O)C2CCCN(c3ncnc4c3nc3n4CCCCC3)C2)cc1Cl` (stereo not drawn) the “activity change, negative = inhibition” value was inactive: 12.8%.
With `Cc1c(C(=O)Nc2ccc(S(=O)(=O)N(C)C3CCN(C)CC3)cc2)oc2c(Cl)cccc12` the Potency was inconclusive: 28.2 µM [inhibitor, single point].
With `O=C(N/N=C/c1ccc(Cl)cc1Cl)c1n[nH]c2c1CCCC2` the Potency was inconclusive: 0.355 µM [inhibitor, full curve, poor fit].
In the case of `O=c1cc(C(F)(F)F)[nH]c2c(C(F)(F)F)cccc12`, the Potency was inconclusive: 28.2 µM [inhibitor, single point].
For `C[C@H](CO)N1C[C@H](C)[C@@H](CN(C)Cc2ccncc2)Oc2c(NC(=O)CCCCCC(=O)Nc3ccccc3N)cccc2C1=O`, the Potency was inconclusive: 2.82 µM [inhibitor, full curve].
For `COc1cc(C(=O)Oc2cc(N)n(S(=O)(=O)c3ccccc3)n2)cc(OC)c1OC`, the Potency was inconclusive: 28.2 µM [inhibitor, single point].
With `c1ccc(CN2CCC(N3CCC(N4CCCCCC4)CC3)CC2)cc1` the Potency was inconclusive: 5.62 µM [inhibitor, partial curve, poor fit].
For `CN(CC(=O)NCC(c1ccccc1)N1CCCC1)S(=O)(=O)c1ccc(Cl)cc1` (stereo not drawn), the Potency was inconclusive: 10 µM [inhibitor, partial curve, poor fit].
For `O=C(Nc1cccc(-c2nc3ccccc3s2)c1)c1cccs1`, the Potency was inconclusive: 10 µM [inhibitor, single point].
With `OC(CNC1CCCc2ccccc21)COc1c(Cl)cccc1Cl` (stereo not drawn) the Potency was inconclusive: 28.2 µM [inhibitor, single point].
With `Cc1ccc2c(c1)C(=O)C(=O)N2c1ccc(Cl)cc1` the Potency was inconclusive: 28.2 µM [inhibitor, single point].
In the case of `CCc1nc2ccc(C(=O)N3CCN(c4ccccc4)CC3)cn2c1N(CCC(C)C)CCN(C)C`, the Potency was inconclusive: 31.6 µM [inhibitor, single point].
With `O=C(Cn1c(-c2cccs2)cc2cc(F)ccc21)NCCCN1CCN(c2ccccc2F)CC1` the “activity change, negative = inhibition” value was inactive: -0.657%.
In the case of `O=C(CSc1cccc2cccnc12)Nc1ccccc1F`, the Potency was inconclusive: 14.1 µM [inhibitor, single point].
In the case of `c1ccc(CNc2ncnc3c2cnn3-c2ccccc2)cc1`, the Potency was inconclusive: 2 µM [inhibitor, partial curve, poor fit].
For `CC(=O)c1ccc(S(=O)(=O)N2CCN(C(=O)c3ccc(-n4nc(C)c(Cl)c4C)cc3)CC2)cc1`, the “activity change, negative = inhibition” value was inactive: -11.6%.
For `CCc1ccc2[nH]c(=O)c(CN(CCCN3CCOCC3)C(=O)Nc3cccc(Cl)c3)cc2c1`, the Potency was inconclusive: 10 µM [inhibitor, single point].
In the case of `C(=C\c1ccccc1)/CN1CCN(C(CCc2ccccc2)c2nnnn2C2CCCCC2)CC1` (stereo not drawn), the “activity change, negative = inhibition” value was inactive: -9.52%.
In the case of `O=C(O)c1cccc2c1-c1ccc(Cl)cc1C2=O`, the “activity change, negative = inhibition” value was inactive: -3.65%.
For `Cc1nc2ccc(S(=O)(=O)NC(C(=O)N3CCN(c4ccc(Cl)cc4)CC3)C(C)C)cc2s1` (stereo not drawn), the “activity change, negative = inhibition” value was inactive: -7.04%.
For `Cc1cc(C)cc(Nc2nc3ccccc3n3cnnc23)c1`, the “activity change, negative = inhibition” value was inactive: -17.2%.
For `CCOc1cc(O)c(-c2[nH]ncc2-c2nc(C)cs2)cc1CC`, the Potency was inconclusive: 28.2 µM [inhibitor, single point].
For `CCOc1cc(C2C(C#N)=C(N)SC(N)=C2C#N)ccc1OCCN1CCOCC1`, the “activity change, negative = inhibition” value was inactive: 5.81%.
For `O=C(c1cccs1)N1CCN(C(=O)c2cccs2)C1=S`, the Potency was inconclusive: 10 µM [inhibitor, partial curve, poor fit].
In the case of `Cc1cc(NC(=O)CCC(=O)N(C2CC2)C(C(=O)NC(C)(C)C)c2ccccc2Cl)no1` (stereo not drawn), the Potency was inconclusive: 11.2 µM [inhibitor, partial curve, poor fit].
With `COc1cc(Br)cc(C(c2c(C)n(C)n(-c3ccccc3)c2=O)c2c(C)n(C)n(-c3ccccc3)c2=O)c1O` the Potency was inconclusive: 28.2 µM [inhibitor, single point].
For `O=C(NCC1CCCO1)C1CCN(C2CCN(CCCC3CCCC3)CC2)CC1` (stereo not drawn), the Potency was inconclusive: 7.08 µM [inhibitor, partial curve].
For `CCCCCC(=O)Nc1cc(S(=O)(=O)O)cc2cc(S(=O)(=O)O)cc(O)c12`, the “activity change, negative = inhibition” value was inactive: 7.52%.
For `CC(C)c1ccc(Nc2ncnc3c2nc2n3CCCC2)cc1`, the “activity change, negative = inhibition” value was inactive: 2.27%.
With `C/C(=N/NC(=O)CN(c1ccccc1)S(=O)(=O)c1ccccc1)c1ccccc1O` the Potency was inconclusive: 6.31 µM [inhibitor, partial curve, poor fit].
For `O=C(c1ccc(Cl)cc1)c1ccc(CN2C(=O)c3ccccc3C2=O)o1`, the “activity change, negative = inhibition” value was inactive: -2.39%.
In the case of `N#Cc1ccc2sn(-c3ccccc3)c(=O)c2c1`, the Potency was inconclusive: 10 µM [inhibitor, partial curve].
For `COc1cccc(C2=C(C(C)=O)Sc3nnc(C4CCCCC4)n3N2C(C)=O)c1`, the “activity change, negative = inhibition” value was inactive: 0.773%.
In the case of `CC1C(=O)N(Cc2cn(CCC3OCCCO3)nn2)CCS(=O)(=O)N1Cc1ccc(-c2ccncc2)cc1` (stereo not drawn), the “activity change, negative = inhibition” value was inactive: 0.435%.
In the case of `CN1CCC[C@@H]1CCO[C@](C)(c1ccccc1)c1ccc(Cl)cc1`, the Potency was inconclusive: 28.2 µM [inhibitor, single point].
For `[O-][n+]1cccc2ncc3cscc3c21`, the “activity change, negative = inhibition” value was inactive: -14.4%.
In the case of `N#C/C(=C\c1cc([N+](=O)[O-])c(N2CCOCC2)cc1N1CCOCC1)c1nc2ccccc2[nH]1`, the Potency was inconclusive: 11.2 µM [inhibitor, partial curve, poor fit].
For `CCc1noc(C)c1C(=O)OCC(=O)Nc1ccc2c(c1)OCO2`, the “activity change, negative = inhibition” value was inactive: -17.7%.
For `CC1CCCCN1CCCNC(=O)c1ccc2c(c1)sc1nc(-c3ccc(F)cc3)cn12` (stereo not drawn), the Potency was inconclusive: 12.6 µM [inhibitor, single point].
With `CCOc1ccccc1C(=O)Nc1cc(Cl)ccc1O` the Potency was inconclusive: 7.94 µM [inhibitor, partial curve].
In the case of `S=C(NCc1ccco1)Nc1cc(-c2ccccc2)[nH]n1`, the Potency was inconclusive: 12.6 µM [inhibitor, single point].
On the % scale 0 is the no-effect control and ±100 the full control effect; potency means the concentration at half of the fitted maximal effect.
